In PubChem BioAssay AID2675 (National Center for Advancing Translational Sciences (NCATS), 2010):
Out of some 280,000 compounds screened, about 100 (0.036%) were called active. The shares of active, inactive and inconclusive entries below differ from those in the screen. Calls come from the whole dose curve; as a rule, active = well fitted inhibition curve with a large enough effect in the signal ratio, with a control signal flat (not every such curve was filed as active); inconclusive = small, poorly fitted or top-dose-only effect, or effect the other way, or a change in a side signal; inactive = no such curve, though single readings can be large or run the other way; the % refers to the signal ratio. Where the call is inconclusive, the potency comes from a doubtful curve fit. A note “side channel” means that the fit belongs to a control or component signal, not to the main read-out.

These molecules were tested against Muscleblind-like protein 1 (Homo sapiens) (UniProt Q9NR56) (assay: qHTS Assay for Inhibitors of MBNL1-poly(CUG) RNA binding). Settings: TR-FRET MBNL1-His/biotin-(CUG)12 binding, 665/545 ratio; activity change, negative = inhibition: at 57.5 µM (top of the series).
UniProt Q9NR56, sequence (Q9NR56 whole entry, looked up): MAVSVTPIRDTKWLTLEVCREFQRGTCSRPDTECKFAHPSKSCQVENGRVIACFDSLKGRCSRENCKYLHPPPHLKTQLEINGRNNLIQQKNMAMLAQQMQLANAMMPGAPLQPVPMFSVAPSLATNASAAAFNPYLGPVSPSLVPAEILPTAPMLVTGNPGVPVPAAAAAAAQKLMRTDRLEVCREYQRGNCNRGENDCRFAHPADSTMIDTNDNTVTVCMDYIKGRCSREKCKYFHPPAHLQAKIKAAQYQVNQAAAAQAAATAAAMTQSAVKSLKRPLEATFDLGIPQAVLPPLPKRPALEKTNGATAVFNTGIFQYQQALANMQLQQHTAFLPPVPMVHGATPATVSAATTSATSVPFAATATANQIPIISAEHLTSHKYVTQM
In short: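 Compound titration spanned 92 nM–58 uM against the MBNL1-His/biotin-(CUG)12 complex. After 60 min at room temperature with 5 nM streptavidin-XL665 and 0.055 ng/ul terbium anti-His, ratiometric 665/545 nm emission (Ex 340 nm) normalized to controls.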
% is set by controls: 0 for no effect and ±100 for the full control effect; potency is the fitted concentration of half-maximal effect; tags give direction and shape of the fitted curve or compound fluorescence and quenching.

Structure (SMILES) | Potency | activity change, negative = inhibition
CCOC(=O)C1=C(CSc2nc(-c3ccncc3)ccc2C#N)OC(N)=C(C#N)C1c1cccnc1 (stereo not drawn) | inconclusive: 25.1 µM [quencher, side channel, single point] | –
O=C(O)c1ccc(Oc2cc(Oc3ccc(C(=O)O)cc3)cc([N+](=O)[O-])c2)cc1 | inconclusive: 31.6 µM [quencher, side channel, partial curve] | –
NC(=O)CC[C@@H]1NC(=O)[C@@H]2CCCN2C(=O)c2cc([N+](=O)[O-])cc(F)c2NCCC[C@@H](C(N)=O)NC1=O | inconclusive: 35.5 µM [quencher, side channel, partial curve] | –
O=c1[nH]ncc(N/N=C\c2cccs2)c1Cl | inconclusive: 25.1 µM [quencher, side channel, partial curve] | –
Cc1ccc(Sc2ccc(CN3CCCCC3)cc2[N+](=O)[O-])cc1 | inconclusive: 10 µM [quencher, side channel, partial curve] | –
CC(=O)Oc1ccc(C(=O)[C@H]2[C@H]3C(=O)N(c4cccc5ccccc45)C(=O)[C@H]3[C@@H]3C=CC=NN32)cc1 | inconclusive: 1.78 µM [quencher, side channel, partial curve] | –
CC(/C=N/NC(=O)c1ccc(CN2c3cccc4cccc(c34)S2(=O)=O)cc1)c1ccccc1 (stereo not drawn) | inactive | –
Cc1onc(-c2ccccc2)c1C(=O)NNC(=S)NC(=O)c1ccc(Cl)cc1Cl | inconclusive: 3.16 µM [quencher, side channel, single point] | –
CCN(CC)c1ccc(/C=N/Nc2nc3ccccc3[nH]2)c(O)c1 | inactive | –
Cc1nnc(SCC(=O)Nc2cccc([N+](=O)[O-])c2)n1CC1CCCO1 (stereo not drawn) | inconclusive: 17.8 µM [quencher, side channel, partial curve] | –
O=C(COc1ccc([N+](=O)[O-])cc1)Nn1cnnc1 | inconclusive: 14.1 µM [quencher, side channel, partial curve] | –
Cc1cccc(Cc2nnc(CCC(=O)N(C)Cc3ccncc3C)o2)c1 | inactive | –
CCc1ccccc1NS(=O)(=O)c1cccc2nsnc12 | inconclusive: 15.8 µM [quencher, partial curve] | –
COCCn1c(SCC(=O)N2CCCc3ccccc32)nc2c(c1=O)SC(C)C2 (stereo not drawn) | inconclusive: 20 µM [quencher, side channel, single point] | –
O=C(N/N=C/C=C\c1ccc([N+](=O)[O-])cc1)c1cccnc1 | inconclusive: 0.708 µM [quencher, side channel, full curve] | –
CCOC(=O)C1=C(c2ccccc2)NC(=S)NC1c1cc([N+](=O)[O-])ccc1OC (stereo not drawn) | inconclusive: 12.6 µM [quencher, side channel, partial curve] | –
Cc1nn(C)cc1C(C)Nc1nc2nonc2nc1N1CCCCC1 (stereo not drawn) | inconclusive: 20 µM [quencher, side channel, single point] | –
CCOC(=O)C(C)On1c(-c2ccccc2)nc2ccc([N+](=O)[O-])cc21 (stereo not drawn) | inconclusive: 14.1 µM [quencher, side channel, partial curve] | –
O=C1C=C(c2ccccc2)C[C@H](c2cccs2)[C@H]1n1cnc([N+](=O)[O-])c1 | inconclusive: 25.1 µM [quencher, side channel, partial curve] | –

Structure (SMILES) | Potency | activity change, negative = inhibition
O=C1CC(c2ccccc2)CC(=O)C1Sc1ccc(Cl)cc1 (stereo not drawn) | inactive | –
Cc1ccc(/C=N/NS(=O)(=O)c2ccc([N+](=O)[O-])cc2)o1 | inconclusive: 4.47 µM [quencher, side channel, partial curve] | –
O=C(COC(=O)[C@@H]1CC(O)CN1S(=O)(=O)c1ccc([N+](=O)[O-])cc1)NC12CC3CC(CC(C3)C1)C2 (stereo partly drawn) | inconclusive: 14.1 µM [activator, partial curve] | –
CCC(Nc1ccc(OC)cc1)C(=O)N/N=C/c1ccc([N+](=O)[O-])cc1 (stereo not drawn) | inconclusive: 14.1 µM [quencher, side channel, partial curve] | –
Cn1c(=O)c2nc3ccccc3nc2n(C)c1=O | inconclusive: 3.55 µM [quencher, side channel, full curve] | –
O=C(Nc1ccc([N+](=O)[O-])cc1)c1ccc(S(=O)(=O)N2CCCC2)cc1 | inactive | –
Cc1sc(NC(=O)Nc2ccccc2)c(C(N)=O)c1C | inactive | –
COc1ccc2nc(NC(=O)c3ccc([N+](=O)[O-])o3)sc2c1 | inconclusive: 6.31 µM [quencher, side channel, partial curve] | –
O=C(O)c1cccc2c1C(=O)c1cccc3snc-2c13 | inconclusive: 12.6 µM [quencher, side channel, partial curve] | –
CSCC[C@H](NC(=O)C(C)Oc1ccc(Cl)cc1)c1nc2ccccc2[nH]1 (stereo partly drawn) | – | inconclusive: -10.7% [phenotype inactive]
O=C(COc1ccc2c(c1)CCC2)NCc1ccccc1 | inactive | –
Nc1nonc1C(=O)N/N=C/c1ccc(-c2cccc(C(=O)O)c2)o1 | inconclusive: 25.1 µM [quencher, side channel, partial curve] | –
O=C(COc1ncnc2cc([N+](=O)[O-])ccc12)NC(=O)NC1CCCCC1 | inconclusive: 25.1 µM [quencher, side channel, partial curve, poor fit] | –
C=CCNS(=O)(=O)c1ccc(N2C(=O)c3ccccc3C2=O)cc1 | inconclusive: 8.91 µM [quencher, side channel, partial curve] | –
Cc1cc([N+](=O)[O-])ccc1NC(=O)c1cncc(Br)c1 | inconclusive: 0.891 µM [quencher, side channel, single point] | –
COc1cccc(C(C)NC(=S)NCc2ccc(Cl)cc2)c1 (stereo not drawn) | inactive | –
Cc1c(OC(C)C(=O)NCc2ccncc2)ccc2c3c(c(=O)oc12)CCCC3 (stereo not drawn) | inactive | –
Cc1nn(-c2ccccc2)c2c1C(c1ccc([N+](=O)[O-])cc1)N1C(=N2)C(=O)Nc2ccccc21 (stereo not drawn) | inactive | –
Cc1ccc2ncc([N+](=O)[O-])n2c1 | inconclusive: 10 µM [quencher, side channel, partial curve] | –
